# Test results reported in PMC5836133.
# Some of the results follow. At the low end of the ranking the order means little.
# System: T1, GST-NbGlk1(82-244)
# T1 sequence: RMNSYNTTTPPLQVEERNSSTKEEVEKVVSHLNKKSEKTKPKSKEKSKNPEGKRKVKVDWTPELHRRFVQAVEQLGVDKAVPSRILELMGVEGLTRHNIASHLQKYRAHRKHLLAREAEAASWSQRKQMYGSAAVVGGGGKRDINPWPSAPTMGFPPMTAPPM
# Experiment: protein-binding microarray;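 note: rank-based score ranging −0.5 to +0.5 with E above 0.45 taken as significant binding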
# Settings: NbGlk1 is a Golden2-like transcription factor of Nicotiana benthamiana; high values mean tight binding; most listed sequences are background and not binding sites; double strand, one strand shown
row,Sequence,binding signal
1,AGGTTAGG,-0.186 E-score
2,ACTACCTG,-0.151 E-score
3,ACGTTTTC,-0.00724 E-score
4,AGGGTATA,-0.0406 E-score
5,AACCATGC,-0.103 E-score
6,AACATATA,0.113 E-score
7,AACTAACG,0.134 E-score
8,ACCAGAGC,-0.0916 E-score
9,AATTCGAG,0.0534 E-score
10,ATCGCTCA,0.0471 E-score
11,ACCTAGAA,0.0466 E-score
12,ACCATGGT,-0.237 E-score
13,AACCTCTT,-0.0885 E-score
14,AGATCAGA,0.248 E-score
15,ATCGGTCC,-0.142 E-score
16,ACGTAATC,0.476 E-score
17,AAAGTTGC,-0.104 E-score
18,AACTTTAG,-0.084 E-score
19,CAATTCAC,-0.00949 E-score
20,AGATGTAC,-0.0183 E-score
21,AGGGTTGA,-0.0692 E-score
22,ACCGTTCC,-0.0437 E-score

row,Sequence,binding signal
1,AGAAGTAG,-0.118 E-score
2,ATATCTTC,0.412 E-score
3,AGCCCCAT,-0.219 E-score
4,AATCCCCT,0.262 E-score
5,AGGAAGAG,-0.199 E-score
6,AGTCAACC,-0.186 E-score
7,CAGAGATA,0.161 E-score
8,ATCGGCAC,0.0121 E-score
9,ACTCACGC,-0.116 E-score
10,AACCACCT,-0.344 E-score
11,ACATCTCC,-0.00227 E-score
12,ATACTACC,0.00264 E-score
13,ACAGTGGC,-0.0484 E-score
14,AGAGGCTC,-0.199 E-score
15,ACCCGCAC,-0.158 E-score
16,ATCGTTGC,0.126 E-score
17,ATGCTATA,0.113 E-score
18,AAGACGGT,-0.125 E-score
19,ATGAGAAC,-0.00755 E-score
20,AATAGATA,0.245 E-score
21,ATCCTAAA,0.253 E-score
22,CACTACCA,-0.0981 E-score

row,Sequence,binding signal
1,AATGTTGC,0.041 E-score
2,AAGGTGGG,-0.221 E-score
3,ACATTTTG,-0.117 E-score
4,AACTACGA,-0.089 E-score
5,AAGGAGCA,-0.248 E-score
6,ATGTCGGC,-0.117 E-score
7,ATAACATG,-0.0919 E-score
8,ATGTCCAA,0.00699 E-score
9,AAAGAACG,-0.0491 E-score
10,ATCGCAGA,0.23 E-score
11,ACAAGGAG,-0.201 E-score
12,ACGTGGAG,-0.183 E-score
13,AAGAGCTA,0.0239 E-score
14,AGTAATCC,0.369 E-score
15,AGTGGAAA,0.0483 E-score
16,ACAACTCG,-0.0289 E-score
17,AGAGGACC,-0.308 E-score
18,ACGAGATC,0.41 E-score
19,AAACCCTA,-0.00643 E-score
20,AACTATGA,0.0548 E-score
21,AAACAGCG,-0.0348 E-score
22,CAACTTTC,-0.0493 E-score

row,Sequence,binding signal
1,AAAAGGTT,0.0126 E-score
2,ATACTCAA,0.196 E-score
3,CAGATGAA,0.0461 E-score
4,AACCGGAA,-0.0142 E-score
5,ACACTGGA,-0.107 E-score
6,ATGAACCG,-0.217 E-score
7,ATATACGC,0.0739 E-score
8,AGTCAGAG,-0.0528 E-score
9,AATCGATG,0.268 E-score
10,CAACGGCC,-0.263 E-score
11,AAACAGGG,-0.0926 E-score
12,ACTGCCTG,-0.226 E-score
13,AAGTGGGG,-0.203 E-score
14,AAACGCGG,-0.103 E-score
15,CAGAATTA,0.118 E-score
16,CAGCAGTC,-0.257 E-score
17,AGGCAGTG,-0.131 E-score
18,ATGAGAGA,0.0988 E-score
19,AAAAGCTG,-0.0311 E-score
20,ACTACAAA,0.0558 E-score
21,ATGTCTAG,-0.0912 E-score
22,AAGCCGGG,-0.211 E-score

row,Sequence,binding signal
1,AAGCAAGC,-0.242 E-score
2,AGGGCCAC,-0.275 E-score
3,CAGAAGCG,-0.072 E-score
4,CAGCGCTG,0.0149 E-score
5,AGGTGGGA,-0.148 E-score
6,ATGCCTAG,-0.165 E-score
7,ATCGGACC,-0.0571 E-score
8,AACGTTCG,-0.0944 E-score
9,CAAGAACA,-0.0173 E-score
10,ACTCGAGG,-0.0502 E-score
11,ATCTGGGG,0.27 E-score
12,AAACACAC,0.133 E-score
13,AGTCGTGG,-0.112 E-score
14,ACACCTAT,-0.0126 E-score
15,AGATGCTG,0.054 E-score
16,AGCGTATC,0.36 E-score
17,CAATTTGA,0.0231 E-score
18,CAACGTGC,-0.246 E-score
19,ACATACAG,0.0684 E-score
20,ACGGAAGG,-0.191 E-score
21,ATTCAGCG,-0.11 E-score
